Assay results reported in the supplement of paper PMC3334620.
Whole data set: some 33,000 sequences, median “E-score (-0.5 to 0.5)” near -0.054, cut for the highest 2% near 0.35. This is one part of the list.

The sequences below were run against T1, Stb5 (UniProt P38699) (assay: PBM E-score (8-mer binding enrichment) (E-score (-0.5 to 0.5)); higher = stronger / more preferred TF binding; most listed sequences are background and not binding sites). Conditions: protein concentration: 200 nM; construct: GST-full length.
T1 sequence: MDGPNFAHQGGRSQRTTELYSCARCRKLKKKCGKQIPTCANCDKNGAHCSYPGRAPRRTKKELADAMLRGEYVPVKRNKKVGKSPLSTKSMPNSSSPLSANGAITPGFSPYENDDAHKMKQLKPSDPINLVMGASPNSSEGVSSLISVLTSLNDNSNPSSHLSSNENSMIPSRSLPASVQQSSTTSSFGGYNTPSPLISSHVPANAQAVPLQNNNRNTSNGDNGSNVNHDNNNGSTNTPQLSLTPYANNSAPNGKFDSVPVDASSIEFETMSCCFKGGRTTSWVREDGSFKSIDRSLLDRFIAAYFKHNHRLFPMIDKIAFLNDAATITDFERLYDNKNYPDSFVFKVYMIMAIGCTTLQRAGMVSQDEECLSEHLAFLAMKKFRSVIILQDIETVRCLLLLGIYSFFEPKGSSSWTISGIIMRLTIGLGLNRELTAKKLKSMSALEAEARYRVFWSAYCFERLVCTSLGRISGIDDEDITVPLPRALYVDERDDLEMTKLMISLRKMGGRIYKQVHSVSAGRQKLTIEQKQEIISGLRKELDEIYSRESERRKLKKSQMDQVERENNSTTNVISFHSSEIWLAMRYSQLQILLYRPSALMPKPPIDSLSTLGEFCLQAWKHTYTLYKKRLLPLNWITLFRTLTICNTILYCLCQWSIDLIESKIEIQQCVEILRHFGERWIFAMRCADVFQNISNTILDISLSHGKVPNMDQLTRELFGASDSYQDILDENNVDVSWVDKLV
Outline: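 Bound GST-tagged yeast transcription factors, applied at about 100-200 nM to double-stranded universal all-10-mer Agilent arrays, were detected with fluorescent anti-GST. Scans were normalised with masliner. A modified Wilcoxon-Mann-Whitney statistic, the E-score, was assigned to each ungapped eight-base word pooled with its reverse complement by the Universal PBM Analysis Suite.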

| Sequence | PBM E-score |
| --- | --- |
| AGCGGGAA | 0.357 |
| ATACTCCA | -0.199 |
| ACCCTGTG | -0.19 |
| CCCGGTTA | 0.313 |
| GCAGCCAC | -0.00795 |
| CGAACTCA | -0.12 |
| AAACCAGT | -0.275 |
| CGGCCGCA | 0.235 |
| CAATCTCA | -0.135 |
| GCGGTTCC | 0.168 |
| AAACGCGT | -0.172 |
| AACTCCAT | 0.144 |
| GTGATTAA | 0.132 |
| GATTCTAC | 0.0624 |
| ACGGAATC | 0.0819 |
| AAAAGTCG | 0.109 |
| TCGAGAGA | -0.156 |
| GCACGACA | -0.0307 |
| AACTGGCG | -0.0206 |
| CTACCTAG | -0.0939 |
| AAGGTAAT | 0.0485 |
| CGAGGGAC | -0.0978 |
| GATGTCGA | -0.144 |
| CTAAGCCC | 0.324 |

| Sequence | PBM E-score |
| --- | --- |
| TAGGAGCA | -0.24 |
| AATATTTC | 0.0341 |
| AGTTTGCG | -0.0438 |
| CGATCGTA | 0.0283 |
| AAGAATGG | -0.0899 |
| CTGCCCTA | -0.218 |
| CGGGGTGC | 0.215 |
| GAAGAAGA | -0.136 |
| GAGATGTA | -0.0314 |
| CTGCTGTA | -0.103 |
| CCTGCTTA | -0.137 |
| AAACTGCT | -0.227 |
| CTTGTTAA | 0.101 |
| AACTGCCT | -0.288 |
| CGTACGAA | -0.0979 |
| ATCCCCTC | -0.0806 |
| AAACTGTC | -0.213 |
| ACGAACTA | -0.222 |
| CTCTTCAA | -0.139 |
| AAACTGAC | -0.0692 |
| GATTTTCC | 0.0954 |
| ACTAATAG | -0.0202 |
| ATGGCGAC | -0.141 |
| GTACTGTA | -0.123 |

| Sequence | PBM E-score |
| --- | --- |
| TCGGTCCA | 0.108 |
| AGCGAAGA | -0.143 |
| AAGCTCCG | 0.429 |
| CCCGTTAC | 0.22 |
| TCGTCAAA | -0.0156 |
| AAACACAG | -0.0631 |
| CTACGGTA | 0.0875 |
| AGAGTGAT | -0.258 |
| GTTAATTA | 0.0587 |
| CTTTAACA | 0.251 |
| AGCCGGGA | 0.091 |
| ACGGTTCT | 0.108 |
| ATGTCAGC | -0.057 |
| ATGTTCTC | -0.11 |
| CTACTTTC | -0.0867 |
| AACGGACG | 0.224 |
| CGCGGCGA | 0.292 |
| AGTTATGA | 0.0258 |
| ATCGAGTA | -0.218 |
| TCCACTCA | -0.0942 |
| CTTTGTGC | -0.168 |
| ATACCCTC | 0.0676 |
| CCGCATTA | 0.243 |
| AAAATAAA | -0.0256 |

| Sequence | PBM E-score |
| --- | --- |
| CGGTCGAC | 0.185 |
| GTGTGCGA | -0.021 |
| GTTGAGGA | -0.203 |
| TGATGCCA | -0.269 |
| CGGTTGTA | 0.309 |
| ATTCAAAA | -0.0949 |
| CGGCGAAC | 0.233 |
| CTCGCATA | -0.173 |
| ACTAGTCA | -0.164 |
| AAGGGTTG | -0.236 |
| CCGGCCCA | 0.153 |
| CTACGAAC | -0.118 |
| AAGTTACC | 0.104 |
| GTGCCAAA | -0.0778 |
| CCCGATAC | 0.285 |
| AAATATCA | -0.0472 |
| ATACAGAT | -0.219 |
| TCTGAACA | -0.141 |
| CTATTAGA | -0.136 |
| CCAATAGG | -0.13 |
| ATGGTCTA | -0.23 |
| GAAACGTC | -0.0353 |
